System: human PBMCs in the presence of the Nectin-4 expressing MDA-MB-175-VII tumor cell line
Assay: Human PBMC TNF-α production in co-culture with Nectin-4 expressing MDA-MB-175-VII cells
Format: cell-based
Conditions: PBMC:MDA-MB-175-VII 5:1, 24 hours
Method: Production of TNF-α from peripheral blood mononuclear cells (PBMCs) co-cultured with Nectin-4 expressing tumor cell lines when contacted with anti-Nectin-4-TLR8 agonist conjugates was examined. Briefly, PBMCs were isolated from normal human donor peripheral blood using SepMate™-50 PBMC Isolation Tubes (STEMCELL Technologies) according to manufacturer's instructions. Isolated PBMCs were cultured with the Nectin-4 expressing tumor cell line MDA-MB-175-VII (ATCC) or the Nectin-4 negative cell line HEK-293 (ATCC) at a 5:1 ratio in the presence of titrated concentrations of anti-Nectin-4-TLR8 agonist antibody conjugates, unconjugated anti-Nectin-4 antibody controls, or an isotype control-TLR8 agonist conjugate. After 24 hours, the cell-free supernatants were collected and stored at −80° C. prior to analysis. TNF-α levels in the cell-free supernatants were quantified using the TNF-α (human) AlphaLISA® Detection Kit (Perkin Elmer) according to manufacturer's instructions.

B1: hzD6.1C-Compound 2.14: "anti-Nectin-4-TLR8 agonist immunoconjugates (hzD6.2C-Compound 2.14, hzD6.1C-Compound 2.14, ...)"; "humanized derivatives" (conjugate)
heavy: EVQLVESGGGLVQPGGSLRLSCAASGFTFSNYDMSWVRQAPGKGLEWVATISSGGSYTYYVDSVKGRFTISRDNAKNSLYLQMNSLRAEDTAVYYCARQELGSYYAMDYWGQGTTVTVSS[human IgG1 constant region omitted]
light: DVVMTQTPLSLPVTPGEPASISCRSSQSIVHSNGNTYLEWYLQKPGQSPQLLIYKVSNRFSGVPDRFSGSGSGTDFTLKISRVEAEDVGVYYCFQGSHVPYTFGGGTKVEIKRTVAAPSVFIFPPSDEQLKSGTASVVCLLNNFYPREAKVQWKVDNALQSGNSQESVTEQDSKDSTYSLSSTLTLSKADYEKHKVYACEVTHQGLSSPVTKSFNRGEC
B1 was tested, and the “increase in maximal TNF-α production compared to D6C IgG1-Compound 2.14” value was ~3 fold and the “increase in maximal TNF-α production compared to anti-Nectin-4 IgG1-Compound 2.14” value was ~3 fold.

— US12364768B2, “Nectin-4 antibody conjugates and uses thereof” (ARARIS BIOTECH AG, priority 2020, dated 2025)
